From PubChem BioAssay AID887 (National Center for Advancing Translational Sciences (NCATS), 2007)
Hit rate of the full screen: of about 74,000 compounds, about 1,100 (1.5%) were called active. The inconclusive results got no clear call from the source; some entries with a clear call stand among them for comparison. The call rests on the fitted dose curve; in most records, active means well fitted inhibition curve with a large enough effect; inconclusive means small, poorly fitted or top-dose-only effect; inactive means no such curve, though single readings can be large or run the other way. No potency is given beside an inconclusive call; the fits are too rough.

Biological target: Polyunsaturated fatty acid lipoxygenase ALOX15 (Homo sapiens) (UniProt P16050)
Chain of UniProt P16050 (P16050 whole entry, looked up): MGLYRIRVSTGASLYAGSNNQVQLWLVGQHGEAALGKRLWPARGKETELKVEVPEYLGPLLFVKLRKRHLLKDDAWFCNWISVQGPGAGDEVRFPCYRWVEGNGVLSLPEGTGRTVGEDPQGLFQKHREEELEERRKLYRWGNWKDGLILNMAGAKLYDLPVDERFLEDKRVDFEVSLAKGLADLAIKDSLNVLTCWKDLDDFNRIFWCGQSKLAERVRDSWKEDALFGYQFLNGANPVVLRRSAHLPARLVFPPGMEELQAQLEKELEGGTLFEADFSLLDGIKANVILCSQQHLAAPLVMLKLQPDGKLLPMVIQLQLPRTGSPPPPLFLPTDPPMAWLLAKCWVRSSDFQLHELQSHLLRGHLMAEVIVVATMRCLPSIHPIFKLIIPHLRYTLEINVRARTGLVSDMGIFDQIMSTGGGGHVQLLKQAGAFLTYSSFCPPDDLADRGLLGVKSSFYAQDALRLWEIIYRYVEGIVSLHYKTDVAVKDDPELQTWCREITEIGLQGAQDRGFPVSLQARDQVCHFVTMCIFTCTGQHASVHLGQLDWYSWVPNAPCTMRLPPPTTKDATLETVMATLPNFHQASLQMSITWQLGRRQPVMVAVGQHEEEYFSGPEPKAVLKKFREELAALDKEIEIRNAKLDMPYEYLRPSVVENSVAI
Assay: qHTS Assay for Inhibitors of 15-hLO (15-human lipoxygenase); further: nearly all actives have a fitted effect of over 55% in size
Settings: purified 15hLO-1, xylenol orange hydroperoxide absorbance; series mostly up to 57.1 µM
Text: Assay Overview: NIH Molecular Libraries Screening Centers Network [MLSCN] NIH Chemical Genomics Center [NCGC] MLSCN Grant: MH081283-01A1 PI Name: Holman, T.R., University of California, Santa Cruz Human lipoxygenase 15hLO-1 is a member of the closely related lipoxygenase family of enzymes which catalyze the site-specific oxidation of arachidonic acid to various hormone precursor molecules and as such is a candidate for drug development in a variety of disease areas, such as cancer and inflammation. Inhibition of 15hLO-1 activity was screened by utilizing arachidonic acid as a substrate. The extent of hydroperoxide product formation was measured by a secondary chromogenic reaction in which xylenol orange (XO, Sigma-Aldrich, cat. number 39,818-7) reacts with the ferric ions produced from the reaction between the hydroperoxide and ferrous ions. The Fe(III)-XO complex is characterized with red-shifted absorbance at 560 nm. A purified preparation of human 15hLO-1 was supplied by Professor Ted Holman, University of California, Santa Cruz.
Assay Protocol: Buffer: 25 mM Hepes pH 7.5, 0.01% Triton X-100. Reagents/Controls: Buffer in columns 3 and 4 as negative control (no enzyme). Substrate solution: 50 uM arachidonic acid (Sigma-Aldrich, St. Louis, MO) final concentration dispensed throughout the plate. Enzyme: 40 nM 15hLO-1 final concentration in columns 1, 2, 5-48. Column 1 is neutral (100% activity). Column 2 contained pin-transferred titration of NDGA (nordihidroguaiaretic acid, Sigma-Aldrich, N 5023, top concentration 10 mM in DMSO, then 1:2 dilution in duplicate). (Dilution factor: 23 nL into 4 uL.) Chromogenic detection reagent (divalent iron/xylenol orange, Fe-XO): 200 uM xylenol orange plus 300 uM ferrous ammonium sulfate prepared freshly in 50 mM sulfuric acid. Assay Steps: Three uL of enzyme were dispensed to 1536-well Greiner black clear bottom plates. Compounds and controls (23 nL) were transferred via Kalypsys PinTool. The plates were incubated for 15 min at room temperature, and then 1 uL of substrate solution was added to start the reaction. After room temperature incubation for 6 minutes, 4 uL of Fe-XO solution was added to each well followed by a short spin (1000 rpm, 15 sec) and the plates were then incubated for 30 min. The absorbance at 405 and 573 nm were measured using ViewLux (Perkin-Elmer) High-throughput CCD imager and absorbance protocol settings. The 573-to-405 absorbance ratio was used to compute reaction progress.
Potency means the concentration at half of the fitted maximal effect; tags describe the fitted curve by direction and shape.

| SMILES | Potency |
| --- | --- |
| COc1ccc(C(c2sc3nc(C)nn3c2O)N2CCN(Cc3ccccc3)CC2)cc1OC (stereo not drawn) | inactive |
| CCOc1ccc2[nH]c(=O)c(CN(CCOC)C(=O)N3CCOCC3)cc2c1 | inactive |
| Cc1cc(=O)oc(C)c1C(=O)NCCCN1C(C)CCCC1C (stereo not drawn) | inconclusive [inhibitor, single point] |
| CCOC(=O)c1cc2oc(C)cc2n1CC(=O)OC1CCCCC1 | inconclusive [inhibitor, single point] |
| COc1ccc(-n2ncc3c(=O)n(CC(=O)N4CCCc5ccccc54)cnc32)cc1 | inconclusive [inhibitor, partial curve] |
| CCN1CCN(Cc2ccc(NC(=O)Nc3cccs3)cc2)CC1 | inconclusive [inhibitor, partial curve] |
| CC1CC(C)CN(Cc2nc3c(c(=O)n(C)c(=O)n3C)n2Cc2ccccc2Cl)C1 (stereo not drawn) | inconclusive [inhibitor, single point] |
| CNc1nc2sc3c(c2c(=O)n1C)CC(C)(C)SC3 | inconclusive [inhibitor, single point] |
| CC1CCc2c(sc(N)c2C(N)=O)C1 (stereo not drawn) | inconclusive [inhibitor, full curve] |
| CC/C=C\C/C=C\C/C=C\CCCCCCCC(=O)O | active: 0.126 µM |
| Nn1c(Nc2ccccc2)nc2sc3c(c2c1=O)CCC3 | inactive |
| O=C(C1CCCN(S(=O)(=O)c2cccc3nonc23)C1)N1CCC(Cc2ccccc2)CC1 (stereo not drawn) | inconclusive [inhibitor, single point] |
| O=C(C1=C(O)C(=O)N(CCN2CCOCC2)C1c1ccccc1)c1cccs1 (stereo not drawn) | inconclusive [inhibitor, single point] |
| C=CCSc1nnc2c(n1)OC(c1cccnc1)Nc1ccccc1-2 (stereo not drawn) | inconclusive [inhibitor, single point] |
| FC(F)(F)c1ccccc1-c1cncnc1NCc1ccccc1 | inconclusive [inhibitor, single point] |
| CC(C)(C)c1c2c(c(C(C)(C)C)c3c1OCN(Cc1ccccc1)C3)OCN(Cc1ccccc1)C2 | inconclusive [inhibitor, single point] |
| O=c1oc2ccccc2cc1O | inactive |
| Cc1noc(/C=C/NCc2cccnc2)c1S(=O)(=O)N(C)CC(=O)N1CCc2ccccc21 | inconclusive [inhibitor, full curve] |
| O=C(CN1CCN(c2ncc(C(F)(F)F)cc2Cl)CC1)NC(=O)NCc1ccccc1 | inactive |
| CN(C)CC(=O)N1c2ccccc2CCc2ccc(NC(=O)c3ccc(N)cc3)cc21 | inactive |
| CC(=O)Nc1ccc(S(=O)(=O)NC2(C(F)(F)F)NC(=O)N(C3CCCC3)C2=O)cc1 (stereo not drawn) | inconclusive [inhibitor, single point] |
| C=CCn1c(SCC(=O)Nc2ccc(C(=O)OCC)cc2)nnc1-c1cccs1 | inconclusive [inhibitor, single point] |
| Nc1nc(SCc2ccccc2)ns1 | inconclusive [inhibitor, single point] |
| Cc1ccc2nsnc2c1S(=O)(=O)Nc1cccc2nsnc12 | inactive |

| SMILES | Potency |
| --- | --- |
| N#Cc1ccccc1-n1c(N)c(C(=O)N2CCCC2)sc1=S | active: 20 µM |
| Cc1cc(C(=O)CSc2nnc(Nc3ccccc3)s2)c(C)n1CC1CCCO1 (stereo not drawn) | inconclusive [inhibitor, partial curve] |
| CCCc1nc2oc(C(=O)OCC)c(N)c2c2c1COC(C)(C)C2 | inactive |
| C1CCN(c2nc3nonc3nc2N2CCCCC2)CC1 | inactive |
| Cc1csc(=N)n1-c1ccc(Cl)cc1 | inconclusive [inhibitor, single point] |
| COc1ccc(C2=CC(c3c(C)nn(-c4ccccc4)c3Cl)n3nnnc3N2)cc1OC (stereo not drawn) | inconclusive [inhibitor, partial curve] |
| CCOc1ncccc1C(=O)Nc1ccc(Cl)cc1 | inactive |
| Oc1cc(O)c2c(c1)OC(c1ccc(O)c(O)c1)C(O)C2 (stereo not drawn) | active: 12.6 µM |
| CCCc1cc(=O)[nH]c(SCC(=O)c2ccc(S(=O)(=O)N3CCCC3)cc2)n1 | inconclusive [inhibitor, single point] |
| COc1ccc(-n2c(=O)c(-c3ccc(Cl)cc3)nc3cncnc32)cc1 | inactive |
| COc1ccc(C(C)=O)cc1COC(=O)c1cccc(N(C)C)c1 | inactive |
| O=C(c1ccco1)N1CCC(c2nc(-c3ccc(F)cc3)no2)CC1 | inactive |
| COc1cc2cc(C(c3nnnn3Cc3ccc(F)cc3)N3CCCCCC3)c(=O)[nH]c2cc1OC (stereo not drawn) | inconclusive [inhibitor, single point] |
| COc1ccc(OC(=O)CCCN2C(=O)c3ccccc3C2=O)cc1 | inactive |
| O=C(CN1CCCC1)NCC12CC3CC(CC(C3)C1)C2 | inactive |
| Cn1cc(C2=C(c3cn(CCCSC(=N)N)c4ccccc34)C(=O)NC2=O)c2ccccc21 | active: 20 µM |
| Cc1ccc(C)c(C(=O)c2c(C)nc3sccn23)c1 | active: 15.8 µM |
| COc1ccc(C(C)=O)cc1CSc1nc2ccccc2o1 | inconclusive [inhibitor, single point] |
| C=CCNc1ncnc2c1ncn2C1OC(CO)C(O)C1O (stereo not drawn) | inconclusive [inhibitor, full curve, poor fit] |
| CO[C@@]12C[C@@H](COC(=O)c3cncc(Br)c3)CN(C)[C@H]1Cc1cn(C)c3cccc2c13 | inactive |
| Cc1noc(C)c1COc1cccc(C(=O)Nc2ccc(C#N)cc2)c1 | inconclusive [inhibitor, single point] |
| COc1cc(NC(=O)c2ccc3c(=O)n(Cc4ccco4)c(=S)[nH]c3c2)cc(OC)c1OC | inconclusive [inhibitor, partial curve] |
| CC1CN(S(=O)(=O)c2ccc(NC(=O)c3cc(-c4ccccc4O)n[nH]3)cc2)CC(C)O1 (stereo not drawn) | inconclusive [inhibitor, single point] |
| COc1cc(C(=O)N(CCc2ccccc2)C2CC3CCC(C2)N3C)cc(OC)c1OC (stereo not drawn) | inactive |
